Data from PMC3279310.
No constants are given. Whether binding was seen depends on the method and setting. In cells and extracts the contact can be indirect. Some binding calls cover weakened binding; strength is not graded here.

Sequences of proteins named here, by UniProt entry; tags and fusion partners are left off.
UniProt P35998: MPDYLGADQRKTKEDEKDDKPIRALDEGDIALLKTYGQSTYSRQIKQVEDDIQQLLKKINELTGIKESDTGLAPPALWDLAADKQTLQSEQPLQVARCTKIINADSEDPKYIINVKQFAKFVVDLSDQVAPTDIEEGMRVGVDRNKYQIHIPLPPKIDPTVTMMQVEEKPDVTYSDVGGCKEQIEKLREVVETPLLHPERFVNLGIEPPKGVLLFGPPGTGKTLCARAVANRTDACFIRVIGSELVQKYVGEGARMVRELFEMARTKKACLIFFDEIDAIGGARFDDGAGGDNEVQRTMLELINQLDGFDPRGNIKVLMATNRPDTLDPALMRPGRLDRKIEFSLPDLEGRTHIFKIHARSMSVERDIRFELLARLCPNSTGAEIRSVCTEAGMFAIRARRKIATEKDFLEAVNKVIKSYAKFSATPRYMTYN
UniProt Q0PF16: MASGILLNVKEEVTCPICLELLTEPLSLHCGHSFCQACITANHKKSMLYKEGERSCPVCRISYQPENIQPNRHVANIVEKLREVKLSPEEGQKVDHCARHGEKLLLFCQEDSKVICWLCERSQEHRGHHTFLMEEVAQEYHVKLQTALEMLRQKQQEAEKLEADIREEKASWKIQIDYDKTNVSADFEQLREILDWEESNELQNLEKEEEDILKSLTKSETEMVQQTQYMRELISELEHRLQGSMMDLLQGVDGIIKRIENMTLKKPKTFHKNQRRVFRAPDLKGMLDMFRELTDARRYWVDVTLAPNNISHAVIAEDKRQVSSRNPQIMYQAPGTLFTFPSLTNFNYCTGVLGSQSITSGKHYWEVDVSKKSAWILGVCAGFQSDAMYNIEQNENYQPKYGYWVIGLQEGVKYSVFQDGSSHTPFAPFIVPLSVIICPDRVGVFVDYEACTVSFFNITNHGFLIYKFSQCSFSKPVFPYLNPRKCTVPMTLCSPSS
UniProt Q9C035: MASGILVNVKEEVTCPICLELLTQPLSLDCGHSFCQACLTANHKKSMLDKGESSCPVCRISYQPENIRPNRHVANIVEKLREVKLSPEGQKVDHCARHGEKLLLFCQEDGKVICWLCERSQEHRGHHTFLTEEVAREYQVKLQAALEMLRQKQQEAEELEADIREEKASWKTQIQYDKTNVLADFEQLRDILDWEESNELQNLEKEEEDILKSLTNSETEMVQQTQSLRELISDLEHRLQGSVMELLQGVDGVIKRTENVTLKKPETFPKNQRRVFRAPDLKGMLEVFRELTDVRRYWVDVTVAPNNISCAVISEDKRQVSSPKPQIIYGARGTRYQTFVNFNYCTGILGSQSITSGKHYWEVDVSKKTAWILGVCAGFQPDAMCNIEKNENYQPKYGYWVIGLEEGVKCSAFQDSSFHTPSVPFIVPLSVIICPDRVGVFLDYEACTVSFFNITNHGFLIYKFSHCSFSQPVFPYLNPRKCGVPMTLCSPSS
UniProt Q16584: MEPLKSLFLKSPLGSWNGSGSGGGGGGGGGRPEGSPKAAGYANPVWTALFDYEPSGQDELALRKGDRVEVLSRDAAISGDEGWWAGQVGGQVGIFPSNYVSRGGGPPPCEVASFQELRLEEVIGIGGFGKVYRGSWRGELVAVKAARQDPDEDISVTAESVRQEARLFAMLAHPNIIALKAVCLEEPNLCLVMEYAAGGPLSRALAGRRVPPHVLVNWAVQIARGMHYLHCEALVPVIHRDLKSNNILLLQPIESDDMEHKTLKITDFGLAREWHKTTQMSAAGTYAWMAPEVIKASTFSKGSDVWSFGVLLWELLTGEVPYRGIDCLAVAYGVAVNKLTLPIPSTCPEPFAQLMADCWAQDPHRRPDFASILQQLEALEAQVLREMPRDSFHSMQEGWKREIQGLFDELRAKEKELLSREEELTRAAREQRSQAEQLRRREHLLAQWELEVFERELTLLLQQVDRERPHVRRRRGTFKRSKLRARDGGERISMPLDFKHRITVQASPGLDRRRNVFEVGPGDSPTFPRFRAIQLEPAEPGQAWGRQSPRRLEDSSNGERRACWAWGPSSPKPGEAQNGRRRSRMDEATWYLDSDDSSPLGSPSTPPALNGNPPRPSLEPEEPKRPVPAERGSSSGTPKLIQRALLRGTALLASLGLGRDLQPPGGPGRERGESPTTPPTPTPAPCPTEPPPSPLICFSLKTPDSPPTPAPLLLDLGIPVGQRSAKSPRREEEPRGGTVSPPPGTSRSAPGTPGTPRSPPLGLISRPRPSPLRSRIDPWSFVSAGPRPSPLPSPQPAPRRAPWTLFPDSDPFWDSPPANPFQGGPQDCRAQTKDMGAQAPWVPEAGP
UniProt P51665: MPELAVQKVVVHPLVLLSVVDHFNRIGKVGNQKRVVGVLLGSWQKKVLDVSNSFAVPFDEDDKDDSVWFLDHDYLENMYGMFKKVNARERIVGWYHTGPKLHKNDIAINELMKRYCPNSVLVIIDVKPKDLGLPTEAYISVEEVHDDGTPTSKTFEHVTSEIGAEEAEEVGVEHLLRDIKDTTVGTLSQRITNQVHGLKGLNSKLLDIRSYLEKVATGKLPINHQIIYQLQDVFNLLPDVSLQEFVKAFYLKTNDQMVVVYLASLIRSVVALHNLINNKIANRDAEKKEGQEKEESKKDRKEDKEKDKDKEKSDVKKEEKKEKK
UniProt P62195: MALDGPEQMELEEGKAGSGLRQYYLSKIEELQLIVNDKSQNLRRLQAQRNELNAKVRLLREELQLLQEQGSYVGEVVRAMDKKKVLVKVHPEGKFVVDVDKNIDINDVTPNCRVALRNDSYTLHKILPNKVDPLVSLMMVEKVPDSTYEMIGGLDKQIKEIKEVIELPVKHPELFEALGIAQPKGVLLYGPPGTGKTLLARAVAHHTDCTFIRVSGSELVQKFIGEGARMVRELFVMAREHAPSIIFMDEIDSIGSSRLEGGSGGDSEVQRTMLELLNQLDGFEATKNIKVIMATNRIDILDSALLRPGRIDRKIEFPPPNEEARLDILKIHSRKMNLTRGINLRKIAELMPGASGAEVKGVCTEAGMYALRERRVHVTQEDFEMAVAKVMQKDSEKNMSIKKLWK

Legend:
[1] = target: FLAG-PSMC2 (transfected HEK293 cells) (UniProt P35998); assay: co-IP; HEK293 cells co-transfected; lysis in 50 mM Tris pH 7.5, 150 mM NaCl, 1% Triton X-100, 1 mM EDTA, 10% glycerol; IP with anti-FLAG M2 on Protein G Dynabeads at 4°C; blot with anti-Myc
[2] = target: HA-rhTRIM5α (HeLa cell line stably expressing it) (rhesus macaque) (UniProt Q0PF16); assay: FRET or BRET; immunofluorescence-based FRET by acceptor photobleaching in fixed HeLa cells stably expressing HA-rhTRIM5α; HA labelled with Cy5 secondary antibody (acceptor), proteasome subunit with Alexa546 secondary antibody (donor)
[3] = target: HA-rhTRIM5α (transfected 293T cells) (rhesus macaque) (UniProt Q0PF16); assay: co-IP; 293T cells co-transfected; lysis in 50 mM Tris pH 7.4, 125 mM NaCl, 1% NP-40; IP with anti-HA antibody and protein A beads at 4°C; blot with anti-FLAG
[4] = target: CFP-rhTRIM5α (rhesus macaque) (UniProt Q0PF16); assay: FRET or BRET; progressive acceptor photobleaching in live HeLa cells transfected 1:1 with CFP-rhTRIM5α (donor) and YFP-PSMC2 or YFP empty vector (acceptor); 50 frames over 10 minutes
[5] = target: CFP-rhTRIM5α (rhesus macaque) (UniProt Q0PF16); assay: FRET or BRET; E-FRET (sensitised emission, three images) in live cells with CFP-rhTRIM5α and YFP-PSMC2, single assemblies

binding [3]	Substance	also measured
–	huTRIM5α-Myc (from UniProt Q9C035 1-493)	binding [1]: binds
–	endogenous proteasome subunit PSMC2 (HeLa) (from UniProt P35998 1-433)	binding [2]: binds
binds	FLAG-RPT3 (from UniProt P43686 1-418)	–
no binding	FLAG-tagged Mixed Lineage Kinase 3 (MLK3) (from UniProt Q16584 1-847)	–
binds	FLAG-RPN8 (from UniProt P51665 1-324)	–
–	YFP-PSMC2 (YFP C1-PSMC2) (from UniProt P35998 1-433)	binding [4]: binds; binding [5]: binds
binds	FLAG-RPT6 (from UniProt P62195 1-406)	–
binds	FLAG-PSMC2 (transfected 293T cells) (from UniProt P35998 1-433)	–
